Data reported in PubChem BioAssay AID1461 (National Center for Advancing Translational Sciences (NCATS), 2008).
In all, about 220,000 compounds went through this assay and about 2,300 (1%) were called active. The shares of active, inactive and inconclusive entries below differ from those in the screen. Calls come from the whole dose curve; as a rule, active = well fitted inhibition curve with a large enough effect; inconclusive = small, poorly fitted or top-dose-only effect, or effect the other way; inactive = no such curve, though single readings can be large or run the other way. No potency is given beside an inconclusive call; the fits are too rough.

These compounds were tested against Neuropeptide S receptor (Homo sapiens) (UniProt Q6W5P4) (assay: qHTS Assay for Antagonists of the Neuropeptide S Receptor: cAMP Signal Transduction). Conditions: CHO-NPSR cells, cAMP TR-FRET, antagonist mode; series mostly up to 38.3 µM.
Chain of UniProt Q6W5P4 (Q6W5P4 whole entry, looked up): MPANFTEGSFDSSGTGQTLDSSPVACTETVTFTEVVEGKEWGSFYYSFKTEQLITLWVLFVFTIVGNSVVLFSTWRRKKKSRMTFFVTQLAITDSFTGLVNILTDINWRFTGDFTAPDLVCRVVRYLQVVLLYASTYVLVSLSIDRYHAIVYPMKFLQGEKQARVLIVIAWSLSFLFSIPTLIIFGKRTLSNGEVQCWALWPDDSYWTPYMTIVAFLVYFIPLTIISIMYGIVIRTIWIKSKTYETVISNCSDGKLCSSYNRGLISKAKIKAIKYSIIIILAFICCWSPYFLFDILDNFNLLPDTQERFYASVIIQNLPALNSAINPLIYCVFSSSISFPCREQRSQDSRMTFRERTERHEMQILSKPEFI
Note: nearly all actives have a fitted effect of over 50% in size.
Potency is the fitted concentration of half-maximal effect; tags give direction and shape of the fitted curve.

| Compound | Potency |
| --- | --- |
| CC(C)CCNC(=O)NC(=O)COC(=O)c1cc(S(=O)(=O)N2CCOCC2)ccc1N1CCCCC1 | inconclusive [activator, single point] |
| CC(C)(C)NC(=O)C(c1ccco1)N(Cc1ccc2c(c1)OCO2)C(=O)Cn1nnc2ccccc21 (stereo not given) | inconclusive [inhibitor, partial curve, poor fit] |
| COc1ccc(C(=O)CSc2nc3ccccc3n2CC(=O)c2ccccc2)cc1 | inconclusive [inhibitor, partial curve, poor fit] |
| N#C/C(=C\c1c(N2CCCCCC2)nc2ccccn2c1=O)C(=O)NCc1ccco1 | inconclusive [activator, partial curve] |
| COc1ccc(Nc2oc(-c3cccs3)nc2C#N)cc1 | inconclusive [inhibitor, single point] |
| CCOC(=O)c1ccc2[nH]c3c(c2c1)CCCC3C(=O)OCC (stereo not given) | inconclusive [inhibitor, single point] |
| C#CCn1c(=O)c2c(ncn2C)n(C)c1=O | inactive |
| O=C(Oc1ccc(NC2=C(Cl)C(=O)c3ccccc3C2=O)cc1)c1ccc([N+](=O)[O-])cc1 | inconclusive [inhibitor, single point] |
| C/C(CC(=O)Nc1ccc(Cl)cc1Cl)=N\NC(N)=S | inactive |
| CC(C)n1cnc2c(N(C)c3ccccc3)nc(N(CCN(C)C)Cc3ccccc3)nc21 | active: 10 µM |
| S=c1nc(-c2ccccc2)n(Cc2cccnc2)c2c1CCCC2 | inactive |
| N#Cc1c(N2CCCC(O)C2)nc(N)c2c(N)nc3c(c12)CC(=O)N3C12CC3CC(CC(C3)C1)C2 (stereo not given) | inconclusive [inhibitor, single point] |
| O=c1cc(CN2CCN(c3cccc(C(F)(F)F)c3)CC2)nc2sccn12 | inactive |
| O=C(C1=C[C@H](c2ccc(C(F)(F)F)cc2)C[C@H](OCCCCO)O1)N1CCN(Cc2ccccc2)CC1 | inconclusive [activator, partial curve] |
| Cc1csc(NC(=O)c2c(-c3c(Cl)cccc3Cl)noc2C)n1 | inconclusive [inhibitor, single point] |
| CSc1cnn(Cc2ccccc2)c(=O)c1SCc1ccccc1 | inconclusive [inhibitor, single point] |
| C=CCn1c(-c2csc3c2CCC(C)C3)n[nH]c1=S (stereo not given) | inactive |
| CCN1C(=O)/C(=C2/C=CC=CN2C)OC1=S | inactive |
| CC(=O)c1sc(-c2ccccc2)cc1NS(=O)(=O)c1ccc(C)cc1 | inconclusive [activator, partial curve] |
| Cc1csc(C2=C(O)CN(c3ccc4c(c3)OCCOCCOCCOCCO4)C2=N)n1 | inactive |
| CN(C)c1ccc(N=Nc2ccccc2C(=O)OCC(=O)N2CCCC2)cc1 | inactive |
| CCOC(=O)CNC(=O)C1c2cc(OC)c(OC)cc2C(=O)N(C)C1c1ccccc1F (stereo not given) | inactive |
| S=C(NCc1ccccc1Cl)Nc1ccccc1Cl | inconclusive [inhibitor, single point] |

| Compound | Potency |
| --- | --- |
| COc1cc2nc(-c3ccccc3)nc(N3CCCC3)c2cc1OC | inconclusive [inhibitor, full curve, poor fit] |
| CCN(CC)C(=O)CSc1nc(C)cc(-c2cccs2)c1C#N | inconclusive [inhibitor, partial curve] |
| O=C(Nc1ccc(F)cc1)c1cccnc1NCCc1ccccc1 | inactive |
| O=Cc1ccc(O)c2ncccc12 | inconclusive [activator, single point] |
| Cc1ccc(CSc2ncnc3c2cnn3Cc2ccccc2)cc1 | inconclusive [inhibitor, single point] |
| N#CC(=C(\N)Sc1ccccc1N)/C(C#N)=C(/N)Sc1ccccc1N | inconclusive [inhibitor, single point] |
| COc1ccc(-c2n[nH]c(=S)n2/N=C/c2cccn2C)cc1 | inactive |
| Cc1ccc2oc(-c3cccc(NC(=S)NC(=O)/C=C/c4ccco4)c3)nc2c1 | active: 2.51 µM |
| O=C(C1=C[C@@H](c2ccccc2)C[C@@H](OCc2ccc(CO)cc2)O1)N1CCCCCCC1 | inconclusive [activator, single point] |
| Cc1ccc(-n2ncc3c(=O)n(CC(=O)NC4CCCCC4)cnc32)cc1C | inconclusive [activator, single point] |
| Cc1cc2c(cc1C)N(C(=O)CSC1=NCCS1)C(C)(C)c1ssc(=S)c1-2 | inconclusive [inhibitor, single point] |
| COc1ccc(N(CC(=O)N2CCN(c3cccc(C)c3)C(C)C2)S(=O)(=O)c2c(C)n[nH]c2C)cc1 (stereo not given) | inconclusive [inhibitor, single point] |
| O=C(COC(=O)c1ccccc1O)Nc1cccc(S(=O)(=O)NC2=NCCCCC2)c1 | inactive |
| CC12CCC(C(=O)Nc3cccc4ccccc34)(C1Br)C2(C)C (stereo not given) | inconclusive [inhibitor, single point] |
| Cc1cc(/C=c2/sc3nc4ccccc4n3c2=O)c(C)n1-c1ccccn1 | inconclusive [inhibitor, single point] |
| COCCCNc1nc(=S)[nH]c2cc(OC)c(OC)cc12 | inconclusive [inhibitor, partial curve, poor fit] |
| COc1ccc2cc(C#N)c(Nc3cccc(F)c3)nc2c1 | inconclusive [inhibitor, single point] |
| O=C(Nc1nc(-c2ccccc2)c(C(=O)c2ccccc2)s1)c1ccc(S(=O)(=O)N2CCCC2)cc1 | active: 6.31 µM |
| Cn1ncc(N=Cc2ccccc2O)c1C(=O)Nc1ccccc1 | inconclusive [inhibitor, partial curve] |
| Cc1ccc(C(=O)O)cc1N=Cc1cc(Br)cc(Br)c1O | inactive |
| CCC(COC(=O)Nc1cccc(C)c1)NC(=O)OCC(C)C (stereo not given) | inactive |
| CCN1/C(=C\C=C2\C(=O)N(C)C(=S)N2C)Sc2ccccc21 | inactive |
